# From patent US20260232825A1, “LINKER-DRUG MOLECULE AND ANTIBODY DRUG CONJUGATE, PREPARATION METHOD THEREFOR AND USE THEREOF” (SHANGHAI ESCUGEN BIOTECHNOLOGY CO., LTD., priority 2023, published 2026)
# B1: Farletuzumab-LD-38 (conjugate, chains of the INN, looked up)
# heavy: EVQLVESGGGVVQPGRSLRLSCSASGFTFSGYGLSWVRQAPGKGLEWVAMISSGGSYTYYADSVKGRFAISRDNAKNTLFLQMDSLRPEDTGVYFCARHGDDPAWFAYWGQGTPVTVSS[human IgG1 constant region omitted here]
# light: DIQLTQSPSSLSASVGDRVTITCSVSSSISSNNLHWYQQKPGKAPKPWIYGTSNLASGVPSRFSGSGSGTDYTFTISSLQPEDIATYYCQQWSSYPYMYTFGQGTKVEIKRTVAAPSVFIFPPSDEQLKSGTASVVCLLNNFYPREAKVQWKVDNALQSGNSQESVTEQDSKDSTYSLSSTLTLSKADYEKHKVYACEVTHQGLSSPVTKSFNRGEC
# modifications: drug-linker LD-38 conjugate
# Columns and labels:
# [1] = system: OVCAR-3 mouse subcutaneous tumor; test: Mouse xenograft tumor model of folate receptor positive OVCAR-3 cells; assay type: in vivo; settings: single administration at 5 mg/kg, day 24
# [2] = system: IGROV1 mouse subcutaneous tumor; test: Mouse xenograft tumor model of folate receptor positive IGROV1 cells; assay type: in vivo; settings: 5 mg/kg once a week, total of two times, day 30
molecule,measurement,setting,value
B1,tumor inhibition rate (TGI),[1],93.5%
same,tumor inhibition rate (TGI),[2],100%
